# The other results are listed elsewhere or left out. The full chains were built here from the parent and the listed change. Inactive controls read about 0.05.
# B1: TEV protease; numbered along this chain (parent)
# chain: MGESLFKGPRDYNPISSSICHLTNESDGHTTSLYGIGFGPFIITNKHLFRRNNGTLVVQSLHGVFKVKDTTTLQQHLVDGRDMIIIRMPKDFPPFPQKLKFREPQREERICLVTTNFQTKSMSSMVSDTSCTFPSGDGIFWKHWIQTKDGQCGSPLVSTRDGFIVGIHSASNFTNTNNYFTSVPKNFMELLTNQEAQQWVSGWRLNADSVLWGGHKVFMVKPEEPFQPVKEATQL
# Variants of: B1
# Experiment: raw area under fraction-flipped curve 0-4 h after induction (AUC4h, not background-subtracted), DNA-recorder readout of cleavage of the substrate (dimensionless); higher = more cleavage of the substrate by the protease variant
# Conditions: temperature: 34 °C; time window: 0-4 h after rhamnose induction
# Method: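 In vivo DNA recorder in E. coli TOP10(DE3) ΔrhaA at 34 °C. Each TEVp single-site mutant (parent TEVp 0) is paired with a single-site variant of the 7-mer TEVs (canonical ENLYFQ|S). The substrate sits between flexible linkers in a Bxb1-sfGFP-TEVs-SsrA fusion, so cleavage stabilises Bxb1 and speeds flipping of a recombination array, read by NGS. The value is the raw area under the fraction-flipped curve over 0-4 h after rhamnose induction (AUC4h), with ≥20 reads per time point. It is not background-subtracted; inactive controls average about 0.047.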
# 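Also: Bxb1 expression induced with 0.2% (w/v) L-rhamnose at OD600 near 0.5, cultures sampled hourly, flipped fraction per protease–substrate barcode pair counted by paired-end Illumina sequencing.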
Variant,area with substrate DNLYFQS,area with substrate GNLYFQS,area with substrate HNLYFQS,area with substrate LNLYFQS,area with substrate NNLYFQS,area with substrate PNLYFQS,area with substrate SNLYFQS,area with substrate TNLYFQS,area with substrate WNLYFQS,area with substrate FNLYFQS
E231S,0.0697,0.0635,0.0676,0.0539,0.0796,0.0531,0.0835,0.065,0.0543,
R50T,,,0.0641,0.0651,0.0702,,0.0634,0.0635,0.0642,0.107
G2V,,0.0771,0.0675,,,0.0734,,,,0.0631
F6L,,0.0605,0.0533,,,,0.0057,0.0534,0.0594,0.0575
K221P,0.0591,,,0.0552,,,,,0.0586,
W212Y,0.0759,,,0.0647,0.068,0.0711,,0.0619,,0.0644
W212H,0.0823,,0.0559,,0.05,0.0519,,,,
N53H,,,0.0568,0.0714,0.0479,0.0667,0.0664,0.0538,0.0685,0.0675
V210A,0.0678,,0.0527,,,0.0692,,0.0667,0.0551,
G214L,0.0634,,0.0566,0.0579,,0.0634,0.0741,0.0602,,
G214T,0.0662,,,,0.0509,,0.052,,,
C20I,,0.0409,0.055,,0.0672,,,0.0616,0.0611,0.057
G213P,0.0643,0.0658,,,,,,,0.0485,0.0885
G213I,0.0413,0.0604,0.0596,0.0608,0.0517,0.057,,,,0.0549
G213E,0.0644,,,0.0651,,0.054,,,,
S209T,0.0893,,,,,0.0545,,,,0.0458
T233I,0.0797,,0.0783,0.075,0.0555,0.0683,,0.0581,,0.043
T233V,0.0704,,,0.072,,,,,,
H215Y,0.0626,,,,,,0.0711,0.0827,,
H215T,0.0594,0.0455,0.058,0.0626,,,0.0649,,0.0575,
Q227H,0.0668,,0.0699,0.0675,,,,,0.0537,
F226P,0.0843,,,0.0543,0.0345,,0.0687,0.0333,0.0575,

# Same assay, conditions: temperature: 34 °C; time window: 0-4 h after rhamnose induction
Variant,area with substrate INLYFQS,area with substrate MNLYFQS,area with substrate VNLYFQS,area with substrate YNLYFQS,area with substrate KNLYFQS,area with substrate RNLYFQS,area with substrate QNLYFQS
R50T,0.146,0.0786,0.0737,0.0639,,,
G2V,0.0462,,0.0648,0.0881,0.105,,
F6L,,0.0585,,0.0723,,,
K221P,0.0636,0.0559,0.0514,,0.0507,0.0658,
W212Y,,,,,0.0401,,
W212H,0.0604,,,0.0512,,,0.0541
N53H,0.064,,,0.0727,0.0684,,
V210A,,,,0.0646,,,
G214L,,,,0.054,,,
G214T,,,0.0898,,,,
C20I,,0.0898,0.0787,0.0681,0.0677,,0.0169
G213P,,0.0369,,,,,
G213I,0.046,0.0438,0.0594,,,,
G213E,0.0709,0.0185,,,0.0564,,
T233I,,0.0699,,0.0529,,,
T233V,,,0.0613,0.0738,0.0553,,0.0693
H215Y,0.0457,,,0.0628,0.0705,,0.0559
H215T,,,,,,,0.0505
Q227H,0.0539,0.0659,0.0619,0.0637,,,
F226P,,,,0.04,,,
